{"source": "paper PMC12136788", "binders": {"B1": {"name": "chr14:78183846:78183847:+_ENSG00000119705_ENST00000557342|hu_hu|FALSE|FALSE (ssRNA)", "RNA": "GGGAGUUCUACAGUCCGACGAUCGCAGUCUCAAAAAUCUUUCUUUUCAUCAUCAGAUGUUUGCGGAAGUUUUGGCCUUCUAGUGUGAACCUGGACCUUUACUCCAUCUAUAAUAUGAUUUUCCUGUUGUAGUGCAUUCCGAAGCAACAGAGGAUUGAGCAUCA"}, "B2": {"name": "112505324_112505444_1859_3pUTR_ENSMUSG00000032727_ENSMUST00000109272|mouse|control|control (ssRNA)", "RNA": "GGGAGUUCUACAGUCCGACGAUCGGUUCAAACUUCCAGUGAAAGACUAUGCAAACCUGAUAGCUCCCCUUCAGUUUACUGGUACUGCAUACCCAUUGUCUCUGGGCUUCCCGUUCCCAUCACUCUGAAUGAAGGGCGGCGUGCCAACAGAGGAUUGAGCAUCA"}, "B3": {"name": "chr7:7679991:7679992:-_ENSG00000106399_ENST00000396682|hu_hu|hu_hu_hu_mus_False|38_48 (ssRNA)", "RNA": "GGGAGUUCUACAGUCCGACGAUCUGGGAUGAAUCUUUUCCAGCUUCCCCACGAAGCACACGGGCCGGUCGAUAUACUGUGGUAACAUGCCGGCGUUGAUGCGCGACUUGGGGAGCUGCAUUAUGUCCUCCAUGAUUCUGCCGCCAACAGAGGAUUGAGCAUCA"}, "B4": {"name": "chr3:176767854:176767855:-_ENSG00000177565_ENST00000430069|hu_hu|hu_hu_hu_mus_False|38_48 (ssRNA)", "RNA": "GGGAGUUCUACAGUCCGACGAUCGACAUCCUUGUUACUGGGCACGUCCUGCCCUCCUUCCCGUAUGCAGUGUCUAAGCACGAGCUGUGUAGAGCCACUGGUGCUGUUCUCACUGAGGUUCCAGAUUCUUGCCGUGGAGUCUCCCAACAGAGGAUUGAGCAUCA"}, "B5": {"name": "99436588_99436708_523_CDS_ENSMUSG00000032468_ENSMUST00000035043|mouse|control|control (ssRNA)", "RNA": "GGGAGUUCUACAGUCCGACGAUCUAAGGCAGGGAUAAUAUGGCAGUCUAGUAGAGACUUGACAUUGUUUUCUGUGCCCAUCGCAAGACUCCCUAACACCACUGCACAUUCAGUUUUCAGCUCUGUACUUGAGGUUUCUUGUUGCAACAGAGGAUUGAGCAUCA"}, "B6": {"name": "chr12:39763582:39763583:-_ENSG00000139116_ENST00000544797|hu_mus|hu_hu_hu_mus_False|1_48 (ssRNA)", "RNA": "GGGAGUUCUACAGUCCGACGAUCCUCUAGGAACUGGGCAUUCACUUUGAAUUCAGGAGGGGGCAGCCCGUUUUUAAUCGCUGAGGUUUUUUUUUCUUCAAUACUCUUGAACAGGUGUCUAACAGCACGAGAGAUGAUACCCAGCAACAGAGGAUUGAGCAUCA"}, "B7": {"name": "chr3:32586495:32586496:-_ENSG00000144635_ENST00000273130|hu_mus|FALSE|FALSE (ssRNA)", "RNA": "GGGAGUUCUACAGUCCGACGAUCUUUCUGUAAGGAAUCCAAAGCAGUCCAAGGCUUUGACAUAUCAACAACCAACAUGACCAGAGUGUCCCUCAGAGAAAGGGCAUCCAGAGAGAACUUGAGUAGCCCUUUGUGGUACAGAUCCAACAGAGGAUUGAGCAUCA"}, "B8": {"name": "chr7:75932113:75932114:+_ENSG00000106211_ENST00000248553|hu_hu|hu_hu_hu_mus_False|48_98 (ssRNA)", "RNA": "GGGAGUUCUACAGUCCGACGAUCCUGCGACCACUCAUCCGGCAGCCGGGGCACCCCGAAAGCUUGAUCGAAGAGGCGGCUGUGUGCGUACCAGUCGUCCCGGAAUGGUUCCCAGCUCGGGCUCCGCAGCAGCGAGAAGGGCACCAACAGAGGAUUGAGCAUCA"}, "B9": {"name": "chr8:82586177:82586178:-_ENSG00000133731_ENST00000256108|hu_mus|FALSE|FALSE (ssRNA)", "RNA": "GGGAGUUCUACAGUCCGACGAUCCCCUUUCCUGCCGGUGUACAUCUUAUCUUCCACACAGCUGUACACAAUUCCAAACUCCAUCUCUUUAUUCACAAGGAAGCCAAUUGAAACAGCUACAAAGGGAAACCGAUGCACGAAGUUCAACAGAGGAUUGAGCAUCA"}, "B10": {"name": "109982352_109983999_3291_CDS_ENSMUSG00000032479_ENSMUST00000165876|mouse|control|control (ssRNA)", "RNA": "GGGAGUUCUACAGUCCGACGAUCAGCCUCAGGGAUGACUGGCUCCUCCCCAGCGGGGGGGCCUGGACACGGAAGGGCCUCACUGCCACCGCCCUCAGUCUUCACGGCACCUCCUGCAGGCAAGUGGCCCACGUUAUCAAGGGACAACAGAGGAUUGAGCAUCA"}, "B11": {"name": "155193506_155193626_1599_ncRNA_ENSMUSG00000029068_ENSMUST00000139066|mouse|control|control (ssRNA)", "RNA": "GGGAGUUCUACAGUCCGACGAUCUUAUAGGCUAAGGCCAAAGGGUAUACUAGCUUUAUCAACAAUGCAAAAACAAUUCAUGAGAAAACACGUCAUGAGGUUAUACACUGCCCAACAUAUCCAAUGGUACUGUGCAUACCCUAACAACAGAGGAUUGAGCAUCA"}, "B12": {"name": "6378548_6378668_99_3pUTR_ENSG00000133398_ENST00000255764|human|control|control (ssRNA)", "RNA": "GGGAGUUCUACAGUCCGACGAUCCACGAACUUCUCCAGGUGCUCCUCUAGGUGGUCAAACUUCUCCGCCAUCGCCUCGGCCCGUCCCCGACCCACACAGCCUCAACCAGCAGCGCCGCAGGCGUGGCCCUACGCUCCCGCUUCCAACAGAGGAUUGAGCAUCA"}, "B13": {"name": "78912229_78912349_2612_CDS_ENSMUSG00000022016_ENSMUST00000123853|mouse|control|control (ssRNA)", "RNA": "GGGAGUUCUACAGUCCGACGAUCAUUCUGGUUGCAUGGAUUGAGUUCUGAAGGUAGACAGGUACUUCUGAGACAAUCUACUUCCUCUGCACUGCGUUCUAUGGCAAUGUGUUCUUGGGUAGAGCCACCACUUGCUUUACUAGGCAACAGAGGAUUGAGCAUCA"}, "B14": {"name": "chr15:76911759:76911760:-_ENSMUSG00000033565_ENSMUST00000166610|mus_mus|motif|central (ssRNA)", "RNA": "GGGAGUUCUACAGUCCGACGAUCGAGGAACAUCCAGACAAACAUUUUCACUACAAGUCUCCUUAAAGGAAUCCAGCUUCGGGUAAUAUUCGCAGCAUAGAAAGCCCAGGCCACAGAGGCCUGCAAAACUGCAAACACCCUUCUCAACAGAGGAUUGAGCAUCA"}}, "note": "This is one part of the list."}
{"target": "T1, UNK ZnF1-3 (human, UniProt Q9C0B0 31-174)", "T1 sequence": "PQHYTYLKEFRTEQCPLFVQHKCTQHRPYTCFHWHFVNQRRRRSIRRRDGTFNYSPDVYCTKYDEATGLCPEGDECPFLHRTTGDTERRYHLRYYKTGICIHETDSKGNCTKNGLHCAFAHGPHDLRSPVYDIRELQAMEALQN", "assay": "nsRBNS (natural sequence RNA bind-n-seq); RBNS binding buffer (assumed for nsRBNS): 25 mM Tris pH 7.5, 150 mM KCl, 3 mM MgCl2, 0.01% Triton X-100, 500 ug/ml BSA, 20 U/ml SUPERase-In, 4 C; UNK is unkempt and MSI1 is Musashi-1; names of the RNAs are library labels; protein concentration not given here; high values mean tight binding", "units": {"binding signal": "enrichment R"}}
{"binder": "B1", "binding signal": 0.659}
{"binder": "B2", "binding signal": 0.671}
{"binder": "B3", "binding signal": 0.406}
{"binder": "B4", "binding signal": 0.523}
{"binder": "B5", "binding signal": 0.656}
{"binder": "B6", "binding signal": 1.69}
{"binder": "B7", "binding signal": 0.996}
{"binder": "B8", "binding signal": 0.968}
{"binder": "B9", "binding signal": 1.06}
{"binder": "B10", "binding signal": 0.759}
{"binder": "B11", "binding signal": 0.558}
{"binder": "B12", "binding signal": 1.03}
{"binder": "B13", "binding signal": 1.05}
{"binder": "B14", "binding signal": 1.04}
